ChEMBL document CHEMBL4888484, “Replenishing the malaria drug discovery pipeline: Screening and hit evaluation of the MMV Hit Generation Library 1 (HGL1) against asexual blood stage Plasmodium falciparum ,using a nano luciferase reporter read-out” (2022)
About 540 (0.36%) of roughly 150,000 compounds showed an effect of 50% or more. The list shows a part of the results.

What follows are molecules tested on Plasmodium falciparum (assay: Primary screen in NF54 nanoGlo assay, in single point, at 2uM, 72h; a lower Z score goes with more inhibition). Conditions: timepoint 72 hour.
Format: functional, Erythrocyte

Row | SMILES | % Inhibition | Z score
1 | COc1ncc(NC(=O)c2cccc(Oc3ccc(C)nn3)c2)cn1 | -4% | 0.73
2 | O=C(CCNC(=O)c1cnoc1-c1ccccc1)Nc1ccncc1 | -1% | 0.14
3 | Cc1ccc(NS(=O)(=O)c2cc3n(c2)CCCNC3=O)c(C)c1 | 2% | -0.21
4 | Cc1cnn(Cc2cc(C(=O)N3CC4(C[C@@H](C(=O)NC(C)C)N(C)C4)C3)no2)c1 | -3% | 0.66
5 | CCCn1cnc2ccc(-c3noc(-c4cccc(OC)c4)n3)cc21 | -16% | 1.67
6 | CN1CCC(N(C)C2CCCCC2N(C)C(=O)CC2CCC2)CC1 (stereo not given) | -3% | 0.39
7 | CCCc1n[nH]cc1C(=O)N1C[C@@H]2CC[C@H]1CN(Cc1c(C)noc1C)C2 | -13% | 1.31
8 | CC1=C(C(=O)Nc2nn(C)cc2C#N)CCC1 | -12% | 2.11
9 | Cc1ccc(N2CCCN(Cc3ccc(C(C)C)cc3)C2=O)c(NC(=O)c2ccco2)c1 | 36% | -4.89
10 | CN(Cc1cccnc1)C(=O)C1CCC1 | -5% | 0.56
11 | CCc1nnc([C@@H]2CC(F)(F)CN2C(=O)c2cc(C)oc2C)o1 | -5% | 0.81
12 | Cn1ccc2cccc(NC(=O)N3CCC(Oc4ccc(F)cc4F)CC3)c21 | 5% | -0.79
13 | O=C(Cc1c[nH]c2ccccc12)Nc1ccc(OCc2ccccc2)cc1 | 2% | -0.38
14 | Cn1nc(CCC(=O)N2CCCCC2)c2c1CCN(CC1CCCCC1)C2 | -11% | 1.34
15 | Cc1cnccc1NC(=O)NCCC(=O)Nc1ccccc1 | -3% | 0.48
16 | CCN1CCCN(c2nc3ccccc3o2)CC1 | -1% | 0.15
17 | CCn1nc([C@@H]2CCCN2S(=O)(=O)c2ccc(F)c(C)c2)c2c1CCOC2 | 4% | -0.43
18 | Cc1ccc2nc(C3CC3)cc(C(=O)N3CC(n4cc(C(N)=O)nn4)C3)c2c1 | -2% | 0.24
19 | O=C(NC1CCCCC1)N1CC(c2noc(COCc3ccccc3)n2)C1 | -13% | 1.54
20 | Cc1nocc1NC(=O)N[C@H]1CC12CCCCC2 | -3% | 0.63
21 | CC1=C(C(=O)c2ccccc2)[C@@](NC(=O)c2cccnc2)(C(F)(F)F)C(=O)N1CCc1ccccc1 | -6% | 0.76
22 | COC(=O)NCC(=O)N(CCN1CCCC1)Cc1ccccc1 | -5% | 0.64
23 | O=S1(=O)CCC(S(=O)(=O)Oc2cccc3cccnc23)CC1 | -7% | 0.95
24 | CN(Cc1csc(-c2ccccc2)n1)C(=O)c1cnn2c1CCCC2 | -10% | 1.83
25 | C[C@@H](C(=O)O)N(C(=O)c1n[nH]c2ccccc2c1=O)C1CC1 | -11% | 1.42
26 | CN(CCO)C[C@H](O)COc1c(Cl)cccc1Cl | -8% | 1
27 | CC(=O)N1C[C@@H]2CCN(C(=O)c3ccc4c(c3)OCO4)C[C@]2(CO)C1 | 4% | -0.57
28 | CC1CCCC(CO)N1Cc1nc(-c2ccco2)no1 (stereo not given) | -15% | 1.86

Row | SMILES | % Inhibition | Z score
29 | N/C(=N\NC(=O)c1cnccn1)c1ccccn1 | 0% | 0.04
30 | Cc1cccc(Cn2nc(C)cc2NC(=O)[C@H]2CC[C@@H](O)CC2)c1 | -7% | 1.26
31 | Cc1nn(-c2ccccc2)c(=O)n1CC(=O)NCCN1CCOCC1 | -5% | 0.75
32 | c1ccc(-c2csc(CN3CC(N4CCCCC4)C3)n2)cc1 | -11% | 1.36
33 | O=C(C1CCN(c2nccs2)CC1)N1CCN(S(=O)(=O)c2ccc(F)cc2)CC1 | 0% | 0.06
34 | O=C(CCn1cnc2ccccc2c1=O)N1CC(S(=O)(=O)c2ccc(Cl)cc2)C1 | -22% | 2.85
35 | CCN(Cc1noc(CC(C)C)n1)C(=O)CN1C(=O)OC[C@@H]1C(C)C | -10% | 1.54
36 | Cc1cc(CN2CCN(C(=O)NCc3ccccn3)CC2)on1 | -9% | 1.24
37 | Cc1nccc(CCC(=O)NC[C@H]2CCC(C)(C)O2)n1 | -5% | 0.86
38 | CCCn1c(C(=O)NCCN2CCOCC2)cc2cc(NS(=O)(=O)c3ccc(C(C)(C)C)cc3)ccc21 | -7% | 0.88
39 | CCc1nc(CC)n(Cc2nc(-c3ccccn3)no2)n1 | -11% | 2.07
40 | COC[C@H](C)Nc1ccc(C)c(C(=O)OC)c1 | -8% | 1.19
41 | CCN1CC(=O)N(c2cscc2Cl)C1=O | -1% | 0.27
42 | O=C(NCCC1CCCCO1)C1NCC12CCCC2 (stereo not given) | 2% | -0.26
43 | Fc1cccc(F)c1-c1n[nH]cc1CN1CCCc2n[nH]cc21 | -4% | 0.34
44 | Cc1nc(C)c(C(=O)Nc2nc(-c3cccs3)nn2C)s1 | -7% | 0.62
45 | COC(C)c1nc(CN2C(=O)C3CCCCN3C2=O)cs1 (stereo not given) | -10% | 1.16
46 | CC(=O)N1CCC(CNc2nc(N)cc(C(C)(C)C)n2)CC1 | -7% | 1.46
47 | O=C(C1CC12CC2)N1CCOCC1C1CCC1 (stereo not given) | 10% | -1.91
48 | Cc1noc(C)c1CN(C)Cn1nc2ccccn2c1=O | -36% | 4.21
49 | C[C@H](CC(=O)N(C)c1ccc(-c2onc3c2CCc2ccccc2-3)cc1)CC(C)(C)C | -3% | 0.43
50 | COc1ccccc1[C@@H]1CCCN1CCC(=O)Nc1cccnc1 | 1% | -0.08
51 | N#Cc1cnc2c(F)cc(F)cc2c1NCC1(O)CCOCC1 | 3% | -0.69
52 | O=C(Nc1ccc(Cl)c(N2CCCS2(=O)=O)c1)NC1CCOCC1 | -13% | 1.52
53 | CCc1nccn1C[C@H](C)N1CCN(Cc2cccs2)CC1 | -8% | 1.39
54 | Cc1ccc(Cl)c(C(=O)N2CCc3[nH]c(-c4ccccc4)nc3C2)c1 | -3% | 0.31
55 | C[C@@H](O)CNC(=O)NCC(C)(C)c1ccncc1 | -10% | 1.9
